Laboratory results published in US9138437B2, “Pyrimidine substituted purine compounds as kinase (S) inhibitors” (VERASTEM, INC., priority 2009, dated 2015).
Read-outs that look alike come from different tables or passages of the source.

Key:
Truncated mTOR kinase = Truncated mTOR kinase (Homo sapiens, UniProt P42345); experiment: biochemical
Description: Truncated mTOR kinase and His-tagged 4eBP1 were produced in-house. [γ^33P]-ATP was purchased from Amersham (GE Healthcare). All chemicals, unless otherwise stated, were from Sigma-Aldrich.
Phosphorylation assays were initially performed in a final volume of 20 μL in 384-well polypropylene plate (Greiner). […] After 1 hour incubation at room temperature, the reaction was terminated with 40 μL/well of 20 mM EDTA/1 mM ATP solution.
The plate was washed 4 times with 120 μL/well of 0.5% phosphoric acid via vacuum filtration. Finally, 10 μL/well of Optiphase™ SuperMix liquid scintillation cocktail (Perkin Elmer) was added. After minimum 1 hour of incubation, counting was performed in a Wallac MicroBeta TriLux scintillation counter using coincidence counting mode with crosstalk correction.

[1] = target: Recombinant PI3K p110α/p85 (Homo sapiens, UniProt P42336); settings: read-out: PI3K
Description: Recombinant PI3K p110α/p85 was prepared in-house. Phosphatidylinositol (PtdIns), phosphotidylserine (PtdSer) and all other unspecified chemicals were purchased from Sigma-Aldrich. [γ^33P]ATP and Optiphase scintillant were obtained from Perkin Elmer.
Assays were performed in a final assay volume of 25 μL in 384-well Maxisorp plates (Nunc). […] Maxisorp plates were coated with 20 μL/well of a 1:1 mixture of PtdIns and PtdSer [0.1 mg/mL each dissolved in chloroform:ethanol (3:7)] and left overnight in a fume hood at room temperature (RT) to dry.
The reaction was incubated for 1 hour at RT and terminated with 30 μL/well of 50 mM EDTA solution. The plate was then washed twice with TBS, dried, and added with 30 μL/well of scintillant before it was counted in a MicroBeta Trilux.

| Compound | IC50 (Truncated mTOR kinase) | stability in human liver microsome studies, assessment in words (human, microsomes) | IC50 [1] | stability in human liver microsome studies, assessment in words (in vitro metabolic stability) | activity against mTOR, assessment in words (Truncated mTOR kinase; compared with the other compounds tested) |
| --- | --- | --- | --- | --- | --- |
| CCC(C)n1c(Br)nc2c(-c3cnc(N)nc3)nc(N3CCOCC3)nc21 (centres unmarked) [Cmpd A] | 21 nM | acceptable stability | 43 nM |  |  |
| CC(C)n1c(Br)nc2c(-c3cnc(N)nc3)nc(N3CCOCC3)nc21 [Cmpd B] | 16 nM |  | 17 nM | acceptable stability |  |
| CCc1nc2c(-c3cnc(N)nc3)nc(N3CCOCC3)nc2n1C(C)C [Cmpd C] | 27 nM |  | 16 nM |  |  |
| CCC(C)n1c(C)nc2c(-c3cnc(N)nc3)nc(N3CCOCC3)nc21 (centres unmarked) [Cmpd D] | 40 nM |  | 15 nM |  |  |
| CCC(C)n1cnc2c(-c3cnc(N)nc3)nc(N3CCOCC3)nc21 (centres unmarked) [Cmpd E] | 122 nM | acceptable stability | 18 nM |  | significantly lower activity |
